From PMC4336329 (PLoS ONE, 2015) come the findings set out here.

Out of some 310,000 compounds screened, about 2,200 (0.71%) showed an effect of 50% or more. The effect is printed as a negative number. Some of the results follow.

In this assay the target is human ether-à-go-go-related gene (hERG) potassium channel (human, UniProt Q12809). As to the kind of experiment: primary screen, population patch clamp on CHO cells stably expressing hERG.
Chain of human ether-à-go-go-related gene (hERG) potassium channel (Q12809 whole entry, looked up): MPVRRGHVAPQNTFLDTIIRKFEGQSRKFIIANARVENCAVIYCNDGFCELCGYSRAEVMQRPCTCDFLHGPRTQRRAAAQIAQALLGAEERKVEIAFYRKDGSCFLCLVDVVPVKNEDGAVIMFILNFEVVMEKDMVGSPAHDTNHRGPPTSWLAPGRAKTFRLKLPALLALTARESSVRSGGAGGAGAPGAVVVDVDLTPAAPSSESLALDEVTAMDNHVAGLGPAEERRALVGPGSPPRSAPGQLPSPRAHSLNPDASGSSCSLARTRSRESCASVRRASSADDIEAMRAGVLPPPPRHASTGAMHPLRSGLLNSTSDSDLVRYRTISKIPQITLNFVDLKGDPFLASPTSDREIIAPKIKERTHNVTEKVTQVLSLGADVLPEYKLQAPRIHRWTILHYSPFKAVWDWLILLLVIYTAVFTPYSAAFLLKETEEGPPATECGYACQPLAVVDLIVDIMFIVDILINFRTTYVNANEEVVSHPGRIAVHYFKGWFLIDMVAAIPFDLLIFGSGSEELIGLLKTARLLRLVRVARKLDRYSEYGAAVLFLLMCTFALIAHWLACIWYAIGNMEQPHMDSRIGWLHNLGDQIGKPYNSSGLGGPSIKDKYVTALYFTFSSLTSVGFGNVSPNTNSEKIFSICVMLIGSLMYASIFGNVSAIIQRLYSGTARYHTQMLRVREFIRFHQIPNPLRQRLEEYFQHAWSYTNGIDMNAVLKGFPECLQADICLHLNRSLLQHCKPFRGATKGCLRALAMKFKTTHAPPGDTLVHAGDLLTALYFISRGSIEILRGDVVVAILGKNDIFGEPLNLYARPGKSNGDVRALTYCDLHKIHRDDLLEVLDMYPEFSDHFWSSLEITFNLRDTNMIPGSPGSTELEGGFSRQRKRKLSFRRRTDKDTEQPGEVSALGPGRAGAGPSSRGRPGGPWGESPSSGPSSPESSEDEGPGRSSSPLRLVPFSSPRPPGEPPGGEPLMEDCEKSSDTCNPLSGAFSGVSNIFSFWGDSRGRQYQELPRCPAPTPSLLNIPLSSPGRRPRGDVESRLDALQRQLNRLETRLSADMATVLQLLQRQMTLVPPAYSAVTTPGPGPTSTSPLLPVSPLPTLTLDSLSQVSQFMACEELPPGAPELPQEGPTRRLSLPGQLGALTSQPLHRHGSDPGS
For `COc1cc(/C=C/C(=O)OCC(=O)Nc2c(C)n(C)n(-c3ccccc3)c2=O)cc(OC)c1OC`, the “hERG current change (%, negative = inhibition) at 1uM” value is listed as 9.88%. As for `O=C(Nc1ccc(S(=O)(=O)N2CCCC2)cc1)C1CC(=O)N(c2ccccc2)C1` (stereo not drawn), the “hERG current change (%, negative = inhibition) at 1uM” value came out at 17.7%. In the case of `O=C(NC(=S)N1CCCC1)c1ccc(Cl)cc1`, the “hERG current change (%, negative = inhibition) at 1uM” value is 12.5%. In the case of `COc1ccc(S(=O)(=O)N2CCC3(CC2)OCCN3S(=O)(=O)c2cccs2)cc1OC`, the “hERG current change (%, negative = inhibition) at 1uM” value was determined as 0.929%. Turning to `O=C(CSc1nc2sc3c(c2c(=O)n1-c1ccccc1)CCCC3)N/N=C/c1ccc(C(=O)O)cc1`, the “hERG current change (%, negative = inhibition) at 1uM” value worked out at 6.47%.

Regarding `O=C(NCCc1ccccc1)C(=O)NCC1CCCO1` (stereo not drawn), the “hERG current change (%, negative = inhibition) at 1uM” value is on record as 4.35%. With `CN1C(=S)SC(/[N+]([O-])=C/c2cccnc2)C1(C)C` (stereo not drawn), the “hERG current change (%, negative = inhibition) at 1uM” value is 4.74%. As to `O=C(NCCN1CCOCC1)c1cc2cc([N+](=O)[O-])ccc2s1`, the “hERG current change (%, negative = inhibition) at 1uM” value was -16.7%.

For `CC(NC(=O)CCl)c1ccc(Cl)c(Cl)c1` (stereo not drawn), the “hERG current change (%, negative = inhibition) at 1uM” value stood at 1.86%.

As to `COc1ccc2nc(SCC(=O)Nc3ccc(S(=O)(=O)N4CCCC4)cc3)c(C#N)cc2c1`, the “hERG current change (%, negative = inhibition) at 1uM” value is on record as -3.01%.

For `O=C(COC(=O)/C=C/c1ccc([N+](=O)[O-])cc1)NCc1ccccc1`, the “hERG current change (%, negative = inhibition) at 1uM” value is listed as 4.71%.

Regarding `CCCCC(C(=O)O)C(C)CC(=O)Nc1ccn(-c2ccccc2)n1` (stereo not drawn), the “hERG current change (%, negative = inhibition) at 1uM” value was 14.1%. The result for `COc1cc(CNC(=O)C2CCCN2S(=O)(=O)c2ccccc2)cc(OC)c1OC` (stereo not drawn) reads 14%; that for `Clc1ccccc1-c1ccc(/C=N/n2cnnc2)o1`, 1.23%; that for `O=C(NN/C(=N/S(=O)(=O)c1ccc(Cl)cc1)c1ccccc1)c1ccc(O)cc1`, 34%. For `C[C@@H]1CC[C@@]2(O[C@@H](CCO)C[C@@H](O)[C@@H]2O)O1`, the “hERG current change (%, negative = inhibition) at 1uM” value is 20.7%.

As to `COc1cccc(/C=C/C(=O)N(C)CC(=O)Nc2ccc(Cl)c(C(F)(F)F)c2)c1`, the “hERG current change (%, negative = inhibition) at 1uM” value was 16.7%.

Consider `CCCN(CCC)c1ncnc2c1cnn2-c1ccc(OC)cc1`, for which the “hERG current change (%, negative = inhibition) at 1uM” value was determined as 6.68%. As to `NS(=O)(=O)c1ccc(NC(=O)CCC(=O)c2cccs2)cc1`, the “hERG current change (%, negative = inhibition) at 1uM” value is recorded as 10.5%. In the case of `COc1cccc(NC(=O)CSc2nnc(NC(=O)c3ccco3)s2)c1`, the “hERG current change (%, negative = inhibition) at 1uM” value was determined as 8.44%. As to `Clc1ccccc1-c1nnn(Cc2ccc(-c3nn[nH]n3)cc2)n1`, the “hERG current change (%, negative = inhibition) at 1uM” value came out at 7.12%. The result for `Br.COc1cc(NS(=O)(=O)c2ccc(Nc3nc(-c4cccc([N+](=O)[O-])c4)cs3)cc2)nc(OC)n1` reads 0.0217%. For `CC1CC(C)CN(CC(=O)NC(c2ccccc2)c2ccccc2)C1.O=C(O)C(=O)O` (stereo not drawn), the “hERG current change (%, negative = inhibition) at 1uM” value is -23.2%.

As to `CN1CCN(CC(=O)Nc2ccc([N+](=O)[O-])cc2Br)CC1`, the “hERG current change (%, negative = inhibition) at 1uM” value is -55.8%. As to `O=S1(=O)CCOC[C@H](Cc2ccccc2)N1Cc1ccc(Cl)cc1`, the “hERG current change (%, negative = inhibition) at 1uM” value is given as 21%. As to `O=C(COc1ccc(Cl)cc1Cl)OCC(=O)c1ccc[nH]1`, the “hERG current change (%, negative = inhibition) at 1uM” value was -0.706%. For `O=C1CCC(C(=O)N2CCSCC2)CN1CCc1ccccc1` (stereo not drawn), the “hERG current change (%, negative = inhibition) at 1uM” value is reported as 14.5%. As for `O=C1CC(C(=O)Nc2ccc(C(=O)O)cc2)C(c2ccccc2)O1` (stereo not drawn), the “hERG current change (%, negative = inhibition) at 1uM” value was determined as 25%. As to `O=C(NCCN1CCCCC1)Nc1ccc(F)cc1F`, the “hERG current change (%, negative = inhibition) at 1uM” value came out at 10.1%. `C=CCNC(=O)COc1cc(C)ccc1C`: the “hERG current change (%, negative = inhibition) at 1uM” value was 15.6%. Regarding `Cc1ccc(C)c(C(C)NC(=O)c2ccc(Br)o2)c1` (stereo not drawn), the “hERG current change (%, negative = inhibition) at 1uM” value was found to be 7.77%.

Turning to `COc1ccc(NC(=O)Nc2nnc(CC(=O)Nc3ccccc3)s2)cc1`, the “hERG current change (%, negative = inhibition) at 1uM” value came to 4.6%.

As for `CCc1cccc(CC)c1NC(=O)CO/N=C(\N)CC(=O)NC1CCCCC1`, the “hERG current change (%, negative = inhibition) at 1uM” value is given as 18.5%. Consider `Cc1ccc(-c2nn3c(C)nnc3s2)cc1NC(=O)c1ccc(Br)o1`, for which the “hERG current change (%, negative = inhibition) at 1uM” value is listed as -4.82%. Consider `O=C(O)c1cccc(S(=O)(=O)Nc2cccc(S(=O)(=O)N3CCCCCC3)c2)c1`, for which the “hERG current change (%, negative = inhibition) at 1uM” value is 12.1%.

`O=C(OCc1nc(-c2ccccc2Cl)no1)c1ccco1`: the “hERG current change (%, negative = inhibition) at 1uM” value worked out at 8.17%. For the molecule `O=C(C1CC12CCCC2)N1CCC(CO)(Cc2ccccc2Cl)CC1` (stereo not drawn), the “hERG current change (%, negative = inhibition) at 1uM” value was found to be 9.62%.

Turning to `Cc1ccc(S(=O)(=O)CCC(=O)OCC(=O)Nc2ccc(N3CCOCC3)cc2)cc1`, the “hERG current change (%, negative = inhibition) at 1uM” value stood at 9.08%. Turning to `CCCn1c(CCC(=O)O)nc2cc(S(=O)(=O)N3CCCC3)ccc21`, the “hERG current change (%, negative = inhibition) at 1uM” value is recorded as 13.7%. For the molecule `Cc1cc(C)nc(SCc2nnc(SCC(=O)Nc3ccc(Cl)c(C(F)(F)F)c3)o2)n1`, the “hERG current change (%, negative = inhibition) at 1uM” value is 17.4%.

For `O=S(=O)(Nc1cccc(-n2cnnn2)c1)c1cccc(Cl)c1`, the “hERG current change (%, negative = inhibition) at 1uM” value was determined as 13.6%. Next, `CC(C)C(C(=O)NCc1ccco1)N(CC1CCCO1)C(=O)CNS(=O)(=O)c1ccccc1` (stereo not drawn): 11.3%. With `CC1=CC(C)(C)Nc2ccc(OC(=O)CN3C(=O)c4cccc5cccc(c45)C3=O)cc21`, the “hERG current change (%, negative = inhibition) at 1uM” value was found to be 9.14%. As to `CCCC(C(=O)c1ccccc1)n1cncn1` (stereo not drawn), the “hERG current change (%, negative = inhibition) at 1uM” value came to 18.2%. The result for `Cc1cccc(NC(=O)c2cc([N+](=O)[O-])ccc2N2CCCCC2)n1` reads 0.983%; that for `COc1cc(C(=O)NC(c2ccccc2)c2ccccc2)cc(OC)c1OC`, 13.7%; that for `COc1ccc(NC(=O)c2cccnc2Sc2ccccc2)c(OC)c1`, 14%. As for `COc1ccc(NS(=O)(=O)c2ccc(O)c(C(=O)OCC(=O)NC3CCCCC3)c2)cc1`, the “hERG current change (%, negative = inhibition) at 1uM” value came to 9.36%. On to `COc1ccccc1N(CC(=O)N/N=C/c1ccccc1C(=O)O)S(C)(=O)=O`, for which the “hERG current change (%, negative = inhibition) at 1uM” value was determined as 10.5%.

As to `N#Cc1cc([N+](=O)[O-])ccc1NCC1CCCO1` (stereo not drawn), the “hERG current change (%, negative = inhibition) at 1uM” value was 10.3%. For `COc1ccc(-c2nc(C)sc2CC(=O)O)cc1OC`, the “hERG current change (%, negative = inhibition) at 1uM” value is on record as 5.37%.

Take `Cc1ccc(Nc2nc(Oc3ccc(OCc4ccccc4)nn3)nc(N3CCOCC3)n2)cc1`: the “hERG current change (%, negative = inhibition) at 1uM” value is reported as 11.6%.

On to `C/C=C(/C)C(=O)Nc1cccc(C2=NOC3(C2)C[C@@H](C(N)=O)N(C(=O)CCCCC)C3)c1` (stereo partly drawn), for which the “hERG current change (%, negative = inhibition) at 1uM” value is given as -16.1%. Regarding `CC(C)OCCCNC(=S)NNC(=O)C(c1ccccc1)c1ccccc1`, the “hERG current change (%, negative = inhibition) at 1uM” value is 8.72%. Next, `CC(NC(=O)c1cccs1)C1CCCO1` (stereo not drawn): 14.1%; `Cl.O=C(NCCCn1ccnc1)c1ccc(S(=O)(=O)N2CCCCCC2)cc1`: 9.74%. With `COc1cc2c(cc1OC)C(C)N(C(=O)CCN1C(=O)C3C4C=CC(C4)C3C1=O)CC2` (stereo not drawn), the “hERG current change (%, negative = inhibition) at 1uM” value is 9.39%.

`Cc1cnc(NC(=O)c2cc3c(C)nn(Cc4ccccc4Cl)c3s2)s1`: the “hERG current change (%, negative = inhibition) at 1uM” value is recorded as 6.03%. Regarding `CCOC(=O)C(NC(=O)c1ccccc1)=C(C)C`, the “hERG current change (%, negative = inhibition) at 1uM” value worked out at 12%. As to `S=C(Nc1ccccc1Cl)NC1CC2CCCC(C1)N2C1CC1` (stereo not drawn), the “hERG current change (%, negative = inhibition) at 1uM” value was determined as 1.02%. `CN(C)c1cccc(/C=C(\C#N)c2ccccc2)c1`: the “hERG current change (%, negative = inhibition) at 1uM” value is listed as 14.2%.

In the case of `CCC(Sc1nnc(-c2ccc(C)c(Cl)c2)n1CC)C(=O)Nc1nccs1` (stereo not drawn), the “hERG current change (%, negative = inhibition) at 1uM” value was determined as 8.86%. As to `CN1CCN(/N=C/c2ccc(N(C)c3ccccc3)cc2)CC1`, the “hERG current change (%, negative = inhibition) at 1uM” value is on record as -2.11%.
